Reference: PubChem BioAssay AID588342 (National Center for Advancing Translational Sciences (NCATS), 2011)
In all, about 360,000 compounds went through this assay and about 25,000 (6.9%) were called active. Inconclusive means that the source gave no clear call. Such entries were picked first, then a sample of the others. Calls follow the shape of the dose curve; as a rule, active = well fitted inhibition curve with a large enough effect; inconclusive = small, poorly fitted or top-dose-only effect; inactive = flat fitted curve, though single readings scatter. Where the call is inconclusive, the potency comes from a doubtful curve fit.

Biological target: Luciferin 4-monooxygenase (Photinus pyralis) (UniProt P08659)
UniProt P08659, sequence (P08659 whole entry, looked up): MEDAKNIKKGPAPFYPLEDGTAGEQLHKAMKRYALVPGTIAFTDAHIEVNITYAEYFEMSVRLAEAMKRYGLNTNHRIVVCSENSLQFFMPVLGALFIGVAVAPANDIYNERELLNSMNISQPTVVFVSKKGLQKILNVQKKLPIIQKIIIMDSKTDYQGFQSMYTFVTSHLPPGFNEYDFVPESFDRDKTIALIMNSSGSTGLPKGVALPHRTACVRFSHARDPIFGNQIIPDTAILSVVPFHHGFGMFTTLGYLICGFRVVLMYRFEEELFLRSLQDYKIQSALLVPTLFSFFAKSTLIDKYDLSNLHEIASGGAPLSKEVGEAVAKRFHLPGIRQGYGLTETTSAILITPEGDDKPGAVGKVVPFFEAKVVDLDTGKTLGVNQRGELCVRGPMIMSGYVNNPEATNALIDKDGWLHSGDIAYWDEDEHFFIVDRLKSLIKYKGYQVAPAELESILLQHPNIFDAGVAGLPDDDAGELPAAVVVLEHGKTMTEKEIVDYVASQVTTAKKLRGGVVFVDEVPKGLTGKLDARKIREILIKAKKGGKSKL
Assay: qHTS profiling assay for firefly luciferase inhibitor/activator using purifed enzyme and Km concentrations of substrates (counterscreen for miR-21 project); also: nearly all actives have a fitted effect of over 55% in size
Conditions: purified FLuc, luminescence inhibition; series mostly up to 57.5 µM
Summary of the method: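 Purified P. pyralis luciferase (10nM final) with 10uM D-luciferin and 10uM ATP (Km levels) in 50mM Tris acetate pH 7.5, 10mM Mg acetate, 0.01% Tween-20, 0.05% BSA; qHTS 6-point titration, ~60 µM downward; luminescence read.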
Potency is read from the fitted curve at half-maximal effect; tags tell the direction and shape of the fitted curve.

Compound | Potency
CCOc1ccccc1Nc1nc(-c2sc(NC(=O)c3ccc([N+](=O)[O-])cc3)nc2C)cs1 | inconclusive: 23.9 µM [inhibitor, partial curve, poor fit]
CCCOc1ccc(C2C(=O)N(C3CCCCCC3)CC(=O)N2CCCOCC)cc1OC (configuration not stated) | inactive
O=C(COC(=O)CCC1CCCC1)Nc1ccc(F)cc1Cl | inactive
Nc1ccc2nc(C3CCCCC3)[nH]c2c1 | inconclusive: 37.9 µM [inhibitor, partial curve, poor fit]
Cc1ccc(Cn2c(SCC(=O)N3CC(=O)Nc4ccccc43)nc3ccccc3c2=O)cc1 | inconclusive: 15.1 µM [inhibitor, partial curve, poor fit]
Cn1c(SCC(=O)c2ccc3c(c2)Cc2ccccc2-3)nnc1-c1cccc(N)c1 | inconclusive: 8.49 µM [inhibitor, partial curve]
CCS(=O)(=O)c1ccc2oc(Nc3cccc(OC)c3)nc2c1 | active: 16.9 µM
CCC(=O)N1CCc2cc(S(=O)(=O)N(C)c3cccc(C)c3)ccc21 | inactive
CC1Cc2ccccc2N1C(=O)/C=C/c1cccc(F)c1 (configuration not stated) | active: 6.01 µM
COC(=O)c1cc2c(s1)-c1ccccc1OC2 | active: 23.9 µM
CC(C)c1ccc(OCC(O)Cn2cnc3ccccc32)cc1 (configuration not stated) | inconclusive: 37.9 µM [inhibitor, partial curve, poor fit]
O=C(CCCC(=O)OCC(=O)c1cccs1)Nc1ccc(Oc2ccccc2)cc1 | active: 21.3 µM
Cc1cccc(N2CCN(C(=O)CSc3ccc4c(c3)OCCO4)CC2)c1C | inactive
C=C1CCC(N(O)c2cc(C)on2)C(=C)CCC2C1CC2(C)C (configuration not stated) | inactive
N/C(=N\OC(=O)CC1CCCCC1)c1cccc(Br)c1 | active: 2.69 µM
CCOc1ccc(C(=O)NCCc2ccc3c(c2)OCCO3)cc1 | inconclusive: 23.9 µM [inhibitor, partial curve]
O=C(NC(Cc1c[nH]c2ccccc12)C(=O)OCC(=O)c1cccc2ccccc12)c1cccs1 (configuration not stated) | inconclusive: 19 µM [inhibitor, partial curve]
O=C(CSc1nncs1)Nc1ccc2c(c1)OCCO2 | inconclusive: 30.1 µM [inhibitor, single point]
CCCc1nn2c(C)c(-c3ccccc3)nc2s1 | active: 1.51 µM
COC(=O)CCN(C(=O)c1c(C)oc2ncnc(N3CCOCC3)c12)c1ccccc1 | inactive
CCC(C)[C@@H](NC(=O)OC(C)(C)C)c1nnc(S(=O)(=O)Cc2cccc(C)c2)o1 (some centres not stated) | inconclusive: 30.1 µM [inhibitor, partial curve, poor fit]
COc1cccc(/C=C2\SC(=S)N(C(C(=O)O)c3ccccc3)C2=O)c1OC (configuration not stated) | inconclusive: 30.1 µM [inhibitor, single point]
CC(=O)OC1=Cc2c(ccc3ccc(=O)oc23)OC1(C)C | inconclusive: 30.1 µM [inhibitor, partial curve, poor fit]
Cc1cccc(N2C(=O)c3cccc4c(N(C)CCO)ccc(c34)C2=O)c1 | inconclusive: 26.9 µM [inhibitor, single point]

Compound | Potency
COc1ccccc1C(=O)Nc1sc2c(c1C(N)=O)CCCC2 | inconclusive: 2.13 µM [inhibitor, full curve]
COc1ccc(C2c3cc(OC)c(OC)cc3CCN2C(=O)c2ccccc2)cc1OC (configuration not stated) | inactive
COCc1ccc(C(=O)N2CCCC(C(=O)c3cc(F)ccc3F)C2)s1 (configuration not stated) | inactive
Cc1ccc(C)c(CN2C(=O)c3ccccc3S(=O)c3ccc(C(=O)N(C)Cc4ccccc4)cc32)c1 (configuration not stated) | inactive
Cc1ccc(-n2ncc(C(=O)N3CCC(c4ccccc4)C3)c2C2CCN(C(=O)OC(C)(C)C)CC2)cc1 (configuration not stated) | inactive
C(=N\Nc1nc2ccccc2s1)/c1ccco1 | active: 1.2 µM
Cn1ncc(S(=O)(=O)Cc2ccccc2)c(Cl)c1=O | inconclusive: 12 µM [inhibitor, partial curve, poor fit]
Cc1ccc(S(=O)(=O)Nc2cc3c(cc2Cl)n(C)c(=O)c(=O)n3C)cc1 | inconclusive: 23.9 µM [inhibitor, partial curve, poor fit]
CC(C)(CNC(=O)c1cccc(NS(=O)(=O)c2ccc(Br)cc2)c1)N1CCOCC1 | inactive
O=c1[nH]n(-c2ncnc3c2cnn3-c2ccccc2)c(=O)c2ccccc12 | active: 13.5 µM
COc1cccc(NC=C2C(=O)OC3(CCCCC3)OC2=O)c1 | inconclusive: 26.9 µM [inhibitor, single point]
Cc1nc(NC(=O)/C=C/c2ccccc2)sc1C(=O)N(C)C | active: 13.5 µM
Cc1coc2cc3oc(=O)c(CC(=O)NCc4ccccc4)c(C)c3cc12 | inactive
Oc1ccccc1N=Nc1nc(-c2ccccc2)c(-c2ccccc2)[nH]1 | inconclusive: 23.9 µM [inhibitor, single point]
COc1ccc(-n2ccnc2CN2CCN(C3CCCC3)C(CCO)C2)cc1 (configuration not stated) | inconclusive: 37.9 µM [inhibitor, partial curve, poor fit]
Cc1ccc(C(=O)Nc2ccc3oc(-c4cccnc4)nc3c2)c(Cl)c1 | inconclusive: 0.675 µM [inhibitor, full curve]
CN(C)c1ccc(C(O)Cc2nc3ccccc3n2C)cc1 (configuration not stated) | inconclusive: 37.9 µM [inhibitor, single point]
Cn1ccnc1SCC(=O)Nc1ccc2c(c1)COC2=O | inconclusive: 21.3 µM [inhibitor, partial curve]
COc1cccc(-c2cnc(NCc3ccccc3Cl)n2C)c1 | inconclusive: 23.9 µM [inhibitor, partial curve]
COc1cc(/C=C/C(=O)OCC(=O)Nc2ccc3c(c2)OCCO3)ccc1O | inconclusive: 23.9 µM [inhibitor, single point]
COc1ccc(C(c2c[nH]c3ccccc23)c2c[nH]c3ccccc23)cc1O | inconclusive: 23.9 µM [inhibitor, single point]
c1ccc(Oc2cc(-c3ccccc3)nc(-c3ccccc3)n2)cc1 | inactive
CCOc1ccc(N=Nc2c(C)[nH]n(-c3ccccc3)c2=O)cc1 | inconclusive: 16.9 µM [inhibitor, partial curve]
